{"source": "PubChem BioAssay (NCI)", "assay_in_all_cases": "NCI tumour cell line growth inhibition, 48 h", "key": {"UO-31 renal": {"tested_on": "UO-31 renal"}, "NCI-H226 lung": {"tested_on": "NCI-H226 lung"}, "SK-MEL-2 melanoma": {"tested_on": "SK-MEL-2 melanoma"}, "DU-145 prostate": {"tested_on": "DU-145 prostate"}, "NCI/ADR-RES ovarian": {"tested_on": "NCI/ADR-RES ovarian"}, "HT29 colon": {"tested_on": "HT29 colon"}, "COLO 205 colon": {"tested_on": "COLO 205 colon"}, "MCF7 breast": {"tested_on": "MCF7 breast"}, "CAKI-1 renal": {"tested_on": "CAKI-1 renal"}, "SNB-19 CNS": {"tested_on": "SNB-19 CNS"}, "KM12 colon": {"tested_on": "KM12 colon"}, "HCC-2998 colon": {"tested_on": "HCC-2998 colon"}, "SW-620 colon": {"tested_on": "SW-620 colon"}, "MOLT-4 leukemia": {"tested_on": "MOLT-4 leukemia"}, "HS 578T breast": {"tested_on": "HS 578T breast"}, "SN12C renal": {"tested_on": "SN12C renal"}, "U251 CNS": {"tested_on": "U251 CNS"}, "OVCAR-5 ovarian": {"tested_on": "OVCAR-5 ovarian"}, "UACC-62 melanoma": {"tested_on": "UACC-62 melanoma"}, "HCT-116 colon": {"tested_on": "HCT-116 colon"}, "NCI-H23 lung": {"tested_on": "NCI-H23 lung"}, "LOX IMVI melanoma": {"tested_on": "LOX IMVI melanoma"}, "HOP-62 NSCLC": {"tested_on": "HOP-62 NSCLC"}, "SK-MEL-28 melanoma": {"tested_on": "SK-MEL-28 melanoma"}, "RXF 393 renal": {"tested_on": "RXF 393 renal"}, "SF-539 CNS": {"tested_on": "SF-539 CNS"}, "A549 NSCLC": {"tested_on": "A549 NSCLC"}, "EKVX NSCLC": {"tested_on": "EKVX NSCLC"}}, "note": "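96-well plates; 48 h exposure; 5 concentrations. Endpoints by linear interpolation between flanking doses. Not reached: highest tested concentration assigned. GI50: concentration for 50% inhibition of growth.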 Some entries of the source have several records that differ or are many. Only these are listed. There may be further records. For some assays here: Records of one sample usually come from different ranges of test concentrations, not given here; a value can be the end of its range. Records carry a tag for their origin. Letters hold for one entry only. For some assays here: Values that stand side by side repeat one measurement in other runs, samples, wells, individuals or studies.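 TGI denotes the concentration required for complete inhibition of growth.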"}
{"smiles": "Nc1ncnc2c(C3OC(CO)C(O)C3O)nsc12", "note": "(stereo not given)", "values": [{"measurement": "TGI", "setting": "UO-31 renal", "result": "59.8 nM [sample A, 1 test] and > 26.2 µM [sample B, mean of 2 tests]"}, {"measurement": "GI50", "setting": "NCI-H226 lung", "result": "51.8 nM [sample A, 1 test] and < 15.7 nM [sample A, mean of 2 tests] and 29.7 µM [sample B, mean of 2 tests]"}, {"measurement": "TGI", "setting": "NCI-H226 lung", "result": "712 nM [sample A, mean of 2 tests] and > 100 µM [sample B, mean of 2 tests]"}, {"measurement": "GI50", "setting": "SK-MEL-2 melanoma", "result": "18.6 nM, 10.5 nM [sample A, 1 test] and 6.47 µM [sample B, mean of 2 tests]"}, {"measurement": "TGI", "setting": "SK-MEL-2 melanoma", "result": "82.7 nM, 48.6 nM [sample A, 1 test] and 47 µM [sample B, mean of 2 tests]"}, {"measurement": "GI50", "setting": "DU-145 prostate", "result": "23.7 nM, 14.4 nM [sample A, 1 test] and 11.5 µM [sample B, mean of 2 tests]"}, {"measurement": "TGI", "setting": "DU-145 prostate", "result": "265 nM, 2.32 µM [sample A, 1 test] and > 100 µM [sample B, mean of 2 tests]"}, {"measurement": "GI50", "setting": "NCI/ADR-RES ovarian", "result": "8.06 nM [sample A, 1 test] and 4.69 µM [sample B, mean of 2 tests]"}, {"measurement": "TGI", "setting": "NCI/ADR-RES ovarian", "result": "86.6 nM [sample A, 1 test] and 383 nM [sample A, mean of 2 tests] and > 100 µM [sample B, mean of 2 tests]"}, {"measurement": "GI50", "setting": "HT29 colon", "result": "36.1 nM [sample A, 1 test] and 10.9 µM [sample B, mean of 2 tests]"}, {"measurement": "GI50", "setting": "COLO 205 colon", "result": "35.1 nM [sample A, 1 test] and 9.54 µM [sample B, mean of 2 tests]"}, {"measurement": "TGI", "setting": "COLO 205 colon", "result": "177 nM [sample A, 1 test] and > 55.2 µM [sample B, mean of 2 tests]"}, {"measurement": "GI50", "setting": "MCF7 breast", "result": "38.9 nM [sample A, 1 test] and < 12.9 nM [sample A, mean of 2 tests] and 14.2 µM [sample B, mean of 2 tests]"}, {"measurement": "GI50", "setting": "CAKI-1 renal", "result": "9.9 nM [sample A, 1 test] and 4.02 µM [sample B, mean of 2 tests]"}, {"measurement": "TGI", "setting": "CAKI-1 renal", "result": "181 nM, 26.1 nM [sample A, 1 test] and 34.7 µM [sample B, mean of 2 tests]"}, {"measurement": "GI50", "setting": "SNB-19 CNS", "result": "96.1 nM [sample A, 1 test] and 116 nM [sample A, mean of 2 tests] and 98 µM [sample B, mean of 2 tests]"}, {"measurement": "GI50", "setting": "KM12 colon", "result": "34.9 nM [sample A, 1 test] and < 16.6 nM [sample A, mean of 2 tests] and 16.6 µM [sample B, mean of 2 tests]"}, {"measurement": "TGI", "setting": "KM12 colon", "result": "691 nM [sample A, 1 test] and > 100 µM [sample B, mean of 2 tests]"}, {"measurement": "GI50", "setting": "HCC-2998 colon", "result": "25.3 nM [sample A, 1 test] and 15.6 µM [sample B, mean of 2 tests]"}, {"measurement": "TGI", "setting": "HCC-2998 colon", "result": "157 nM [sample A, mean of 2 tests] and > 91.7 µM [sample B, mean of 2 tests]"}, {"measurement": "GI50", "setting": "SW-620 colon", "result": "23.9 nM [sample A, 1 test] and 6.62 µM [sample B, mean of 2 tests]"}, {"measurement": "GI50", "setting": "MOLT-4 leukemia", "result": "25.8 nM [sample A, 1 test] and < 17.3 nM [sample A, mean of 2 tests] and 14.4 µM [sample B, mean of 2 tests]"}, {"measurement": "TGI", "setting": "MOLT-4 leukemia", "result": "395 nM [sample A, mean of 2 tests] and > 100 µM [sample B, mean of 2 tests]"}, {"measurement": "GI50", "setting": "HS 578T breast", "result": "48.7 nM [sample A, 1 test] and 32.2 nM [sample A, mean of 2 tests] and 37.9 µM [sample B, mean of 2 tests]"}, {"measurement": "TGI", "setting": "HS 578T breast", "result": "623 nM [sample A, 1 test] and 628 nM [sample A, mean of 2 tests] and > 100 µM [sample B, mean of 2 tests]"}, {"measurement": "GI50", "setting": "SN12C renal", "result": "23.3 nM [sample A, 1 test] and < 18.8 nM [sample A, mean of 2 tests] and 14.8 µM [sample B, mean of 2 tests]"}, {"measurement": "TGI", "setting": "SN12C renal", "result": "181 nM [sample A, 1 test] and > 94.6 µM [sample B, mean of 2 tests]"}, {"measurement": "GI50", "setting": "U251 CNS", "result": "74.7 nM [sample A, 1 test] and 41.4 nM [sample A, mean of 2 tests] and 50.4 µM [sample B, mean of 2 tests]"}, {"measurement": "GI50", "setting": "OVCAR-5 ovarian", "result": "56.3 nM [sample A, 1 test] and < 13.1 nM [sample A, mean of 2 tests] and 27.7 µM [sample B, mean of 2 tests]"}, {"measurement": "TGI", "setting": "OVCAR-5 ovarian", "result": "4.31 µM [sample A, mean of 2 tests] and > 100 µM [sample B, mean of 2 tests]"}, {"measurement": "GI50", "setting": "UACC-62 melanoma", "result": "17.3 nM [sample A, 1 test] and 13.3 µM [sample B, 1 test]"}, {"measurement": "TGI", "setting": "UACC-62 melanoma", "result": "96 nM [sample A, 1 test] and 68.7 µM [sample B, 1 test]"}, {"measurement": "GI50", "setting": "HCT-116 colon", "result": "27.3 nM [sample A, 1 test] and 10.1 nM [sample A, mean of 2 tests] and 7.25 µM [sample B, mean of 2 tests]"}, {"measurement": "TGI", "setting": "HCT-116 colon", "result": "405 nM [sample A, 1 test] and 135 nM [sample A, mean of 2 tests] and > 100 µM [sample B, mean of 2 tests]"}, {"measurement": "GI50", "setting": "NCI-H23 lung", "result": "93.9 nM [sample A, 1 test] and < 26.9 nM [sample A, mean of 2 tests] and 41.3 µM [sample B, mean of 2 tests]"}, {"measurement": "TGI", "setting": "NCI-H23 lung", "result": "1.46 µM [sample A, mean of 2 tests] and > 100 µM [sample B, mean of 2 tests]"}, {"measurement": "GI50", "setting": "LOX IMVI melanoma", "result": "4.09 nM [sample A, 1 test] and 3.44 µM [sample B, mean of 2 tests]"}, {"measurement": "TGI", "setting": "LOX IMVI melanoma", "result": "54.3 nM, 400 nM [sample A, 1 test] and 23 µM [sample B, mean of 2 tests]"}, {"measurement": "GI50", "setting": "HOP-62 NSCLC", "result": "36.5 nM [sample A, 1 test] and < 20.2 nM [sample A, mean of 2 tests] and 18.9 µM [sample B, mean of 2 tests]"}, {"measurement": "TGI", "setting": "HOP-62 NSCLC", "result": "645 nM [sample A, 1 test] and > 33 µM [sample A, mean of 2 tests] and > 100 µM [sample B, mean of 2 tests]"}, {"measurement": "GI50", "setting": "SK-MEL-28 melanoma", "result": "42.2 nM [sample A, 1 test] and 36.2 nM [sample A, mean of 2 tests] and 37.5 µM [sample B, mean of 2 tests]"}, {"measurement": "TGI", "setting": "SK-MEL-28 melanoma", "result": "514 nM [sample A, 1 test] and 3.38 µM [sample A, mean of 2 tests] and > 100 µM [sample B, mean of 2 tests]"}, {"measurement": "GI50", "setting": "RXF 393 renal", "result": "7.36 nM [sample A, 1 test] and < 17.8 nM [sample A, mean of 2 tests] and 21.7 µM [sample B, mean of 2 tests]"}, {"measurement": "TGI", "setting": "RXF 393 renal", "result": "53.9 nM [sample A, 1 test] and 201 nM [sample A, mean of 2 tests] and > 74.7 µM [sample B, mean of 2 tests]"}, {"measurement": "GI50", "setting": "SF-539 CNS", "result": "178 nM [sample A, 1 test] and < 26.4 nM [sample A, mean of 2 tests] and 39.7 µM [sample B, mean of 2 tests]"}, {"measurement": "TGI", "setting": "SF-539 CNS", "result": "528 nM [sample A, 1 test] and > 43 µM [sample A, mean of 2 tests] and > 100 µM [sample B, mean of 2 tests]"}, {"measurement": "GI50", "setting": "A549 NSCLC", "result": "43.5 nM [sample A, 1 test] and < 19.2 nM [sample A, mean of 2 tests] and 24.1 µM [sample B, mean of 2 tests]"}, {"measurement": "TGI", "setting": "A549 NSCLC", "result": "440 nM [sample A, 1 test] and 3.38 µM [sample A, mean of 2 tests] and > 100 µM [sample B, mean of 2 tests]"}, {"measurement": "GI50", "setting": "EKVX NSCLC", "result": "101 nM [sample A, 1 test] and 44.3 nM [sample A, mean of 2 tests] and 29 µM [sample B, mean of 2 tests]"}, {"measurement": "TGI", "setting": "EKVX NSCLC", "result": "598 nM [sample A, 1 test] and 1.6 µM [sample A, mean of 2 tests] and > 87.8 µM [sample B, mean of 2 tests]"}]}
